Laboratory results published in the supplement of paper PMC3334620.
The full ranking holds about 33,000 sequences; the median of “E-score (-0.5 to 0.5)” is about -0.021, and the highest 2% start at about 0.32. The list shows a part of the results.

These sequences were tested against T1, Zap1 (UniProt P47043) (assay: PBM E-score (8-mer binding enrichment) (E-score (-0.5 to 0.5)); higher = stronger / more preferred TF binding; most listed sequences are background and not binding sites). Settings: protein concentration: 200 nM; construct: GST-full length.
T1 sequence: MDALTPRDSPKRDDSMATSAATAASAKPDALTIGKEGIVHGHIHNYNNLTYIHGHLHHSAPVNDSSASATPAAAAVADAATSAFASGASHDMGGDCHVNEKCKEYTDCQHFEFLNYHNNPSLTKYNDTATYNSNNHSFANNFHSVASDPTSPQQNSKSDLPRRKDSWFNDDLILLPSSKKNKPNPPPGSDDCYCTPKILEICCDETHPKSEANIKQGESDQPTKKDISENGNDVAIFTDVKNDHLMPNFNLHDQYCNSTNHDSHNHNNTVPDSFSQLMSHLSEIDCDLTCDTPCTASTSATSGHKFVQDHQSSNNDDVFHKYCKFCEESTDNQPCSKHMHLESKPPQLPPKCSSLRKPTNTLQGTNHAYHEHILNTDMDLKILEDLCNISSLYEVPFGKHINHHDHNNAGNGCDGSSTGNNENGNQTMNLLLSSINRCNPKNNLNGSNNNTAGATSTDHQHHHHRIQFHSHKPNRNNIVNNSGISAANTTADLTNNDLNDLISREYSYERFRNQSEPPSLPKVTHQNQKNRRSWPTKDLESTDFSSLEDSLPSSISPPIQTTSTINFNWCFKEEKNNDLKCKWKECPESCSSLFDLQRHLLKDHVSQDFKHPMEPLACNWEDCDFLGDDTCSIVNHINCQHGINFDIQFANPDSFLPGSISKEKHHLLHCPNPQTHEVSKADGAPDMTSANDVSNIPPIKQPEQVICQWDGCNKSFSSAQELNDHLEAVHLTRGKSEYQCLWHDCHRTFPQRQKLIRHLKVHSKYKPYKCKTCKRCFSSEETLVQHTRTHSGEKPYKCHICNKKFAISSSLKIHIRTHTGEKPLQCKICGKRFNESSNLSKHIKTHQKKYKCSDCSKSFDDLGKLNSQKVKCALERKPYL
How it was run: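 Universal all-10-mer Agilent arrays, double-stranded by primer extension on fresh or once-stripped slides, were probed with about 100-200 nM GST-tagged yeast transcription factors made by PURExpress. Fluorescent anti-GST detected bound protein, and masliner normalised the scans. E-scores from the Universal PBM Analysis Suite were given to each ungapped eight-base word pooled with its reverse complement.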

Row | Sequence | PBM E-score
1 | ACATTACT | -0.0581
2 | GAGTAATA | 0.182
3 | AGACTCTC | -0.062
4 | CCATTAAC | 0.292
5 | TCGTGGAA | 0.132
6 | AAGAAGCC | 0.0348
7 | CGAGATTA | 0.0755
8 | AGTGGGAT | 0.00108
9 | CCTTCCCA | 0.0336
10 | AAGACCCA | 0.142
11 | CTAATACA | -0.0935
12 | GCACACGC | -0.0947
13 | AAATAACA | 0.0357
14 | CCAGAAGC | -0.0679
15 | TAATCTAA | 0.17
16 | GATACGGC | -0.222
17 | GCCAAGCA | -0.273
18 | ATAGCCCC | -0.319
19 | CCATCAAA | 0.0846
20 | CAGATCAA | -0.0839
21 | GTATCATA | 0.237
22 | CGGTGAAG | -0.171
23 | ACGTCAGA | -0.185
24 | CTGGACTC | -0.142
25 | AAGCCTTC | -0.214

Row | Sequence | PBM E-score
26 | ACCTTCAA | 0.281
27 | ACGAGCAC | -0.0555
28 | CAAGTCGC | -0.247
29 | CCATCTCA | -0.0981
30 | AGAAATTG | 0.11
31 | CTACTCTC | -0.228
32 | GGCCTATA | 0.0158
33 | CCATCGCA | -0.11
34 | AATTTTAG | 0.0275
35 | AGTGCGGC | -0.237
36 | ATACGCTC | -0.107
37 | CGTTGGTC | -0.0765
38 | CCTTTCGC | 0.0361
39 | CACCGTAG | -0.168
40 | ACTCCTAT | -0.0174
41 | CGGGTACA | 0.122
42 | CGCCCGCG | -0.127
43 | AACAACTA | 0.0139
44 | TCCAGCGA | -0.138
45 | GCAACTAC | 0.0642
46 | CGAGGAGC | -0.26
47 | CACGGGCC | -0.224
48 | TAGAACAA | 0.0748
49 | GCTAGCCA | -0.334
50 | CACGACTA | -0.0134

Row | Sequence | PBM E-score
51 | CTCTATGC | -0.0317
52 | GTTACCGA | 0.268
53 | GTCCGAAC | -0.0294
54 | AGGGGCAC | -0.204
55 | CGGATTAA | -0.00574
56 | CGCGTATA | -0.109
57 | CCGTGGAC | -0.0606
58 | CACAAACG | 0.111
59 | AGTGGACA | 0.0274
60 | AGTTCAGG | 0.0101
61 | CGGGATAA | 0.0579
62 | CACCTCCG | -0.0754
63 | CACTAGAA | 0.0315
64 | CGAATTTC | 0.0202
65 | CCTTTGGC | -0.0594
66 | ATCTAGCG | -0.183
67 | CCACAAGA | 0.0787
68 | CACGACAC | -0.0603
69 | CCGGCGGC | -0.102
70 | AGACACAC | -0.169
71 | ATAGCATG | -0.192
72 | GGATAAAA | 0.108
73 | ATGTTGTC | -0.0552
74 | CGAACCCC | 0.0204
75 | AGGTGCGC | -0.085

Row | Sequence | PBM E-score
76 | CCAACGAA | 0.0692
77 | CTGAACCC | 0.282
78 | AAGTAACC | 0.393
79 | GCGACAAC | 0.178
80 | GAATTCTA | 0.122
81 | GTACTCCA | -0.0554
82 | GAAGTTCC | -0.258
83 | TAGACCGA | 0.019
84 | CCTCATTC | 0.0439
85 | ATGCGTCA | -0.219
86 | GCCTAATA | -0.127
87 | ATCGTATG | 0.00624
88 | CTATAAAA | 0.143
89 | CCGTCCAG | -0.165
90 | TAACGCAA | 0.203
91 | CCGCGTAG | 0.107
92 | GCTAAGCC | -0.276
93 | GTGCCATA | -0.0982
94 | GATGATGC | -0.174
95 | GAACGTTA | -0.217
96 | ACACAGGC | -0.0714
97 | GGATACTA | -0.0401
98 | AAGAGTGG | -0.158
99 | GATCCCCC | -0.428
100 | GGAACCAA | 0.159

Row | Sequence | PBM E-score
101 | CACGGTAA | 0.128
102 | GCGCATAC | 0.0123
103 | GGTCTAGA | -0.0688
104 | CATTACGG | -0.0514
105 | AATTATTA | 0.108
106 | CTCCCCAA | -0.0836
107 | GTTCCCAA | -0.0453
108 | CCGATATA | -2e-05
109 | CTCCTCAA | -0.141
110 | CGCTAGCC | -0.373
111 | CCTTTTCG | 0.186
112 | ACGTCTAA | 0.0735
113 | CTTAGGCC | 0.0131
114 | CCGTTCAG | -0.0239
115 | AGTTGCCG | -0.3
116 | ATCTAAAG | 0.128
117 | CGCAACAC | -0.0575
118 | GCGCAACC | 0.259
119 | AGTCTCAT | -0.0192
120 | CTGTATTA | 0.132
121 | ACCGCCCG | 0.033
122 | CACATGTA | -0.0311
123 | CCCAGTTA | -0.055
124 | CGTTGGTA | -0.00272
125 | ATAATATC | -0.00752

Row | Sequence | PBM E-score
126 | CCCAGTGA | 0.00661
127 | GACTTTGA | -0.139
128 | AAGTCGGG | -0.122
129 | CTCGACAC | -0.117
130 | CTAGGGAA | -0.037
131 | CTATTGGA | 0.0435
132 | CCGTAGGC | -0.309
133 | GACAGCCC | -0.0621
134 | ACATGCAC | 0.0283
135 | CTGATTAC | 0.213
136 | GGATAGTA | 0.0149
137 | GTCACCGA | 0.131
138 | TATTAGCA | 0.0761
139 | GAGATGAC | -0.0731
140 | CGACTCCA | -0.122
141 | GGTCGATA | -0.0635
142 | CGGACATA | 0.0482
143 | ATACGGCC | -0.0305
144 | CCCCATCG | -0.0609
145 | GCCGATCC | -0.287
146 | GTGGTGCA | -0.0414
147 | GCCAAATA | 0.0774
148 | CCATCTGC | -0.0685
149 | AACCAGAC | 0.155
150 | AGTGCAAC | 0.0909

Row | Sequence | PBM E-score
151 | AAACGCAA | -0.0427
152 | GTGCTCGA | -0.214
153 | GTGTGGTA | 0.191
154 | CGCAATAC | 0.208
155 | GAGCATCC | -0.244
156 | CTACGCAA | -0.113
157 | CCTAGCAG | -0.0321
158 | GTTGGTTA | 0.316
159 | AGTCTTAT | -0.115
160 | AGTTTACG | 0.0423
161 | AGTGATGG | 0.00854
162 | CACCTGGG | -0.0725
163 | AGCCACGA | -0.0658
164 | AACTATGA | -0.00628
165 | GAACGTCC | -0.00269
166 | TAGAAAAA | -0.0129
167 | ATGGTAAC | 0.392
168 | CCATCGAC | -0.00182
169 | AGGATAAC | 0.0559
170 | ATCGATAC | 0.0699
171 | ACTTAGTG | -0.12
172 | AGGCCATA | 0.043
